# Laboratory results as given in PMC4336329 (PLoS ONE, 2015).
# The campaign covered roughly 310,000 compounds. About 2,200 (0.71%) showed an effect of 50% or more. Effects have a minus sign here. The list shows a part of the results.
# Molecular target: human ether-à-go-go-related gene (hERG) potassium channel (human, UniProt Q12809)
# Test: primary screen, population patch clamp on CHO cells stably expressing hERG
# Chain of human ether-à-go-go-related gene (hERG) potassium channel (Q12809 whole entry, looked up): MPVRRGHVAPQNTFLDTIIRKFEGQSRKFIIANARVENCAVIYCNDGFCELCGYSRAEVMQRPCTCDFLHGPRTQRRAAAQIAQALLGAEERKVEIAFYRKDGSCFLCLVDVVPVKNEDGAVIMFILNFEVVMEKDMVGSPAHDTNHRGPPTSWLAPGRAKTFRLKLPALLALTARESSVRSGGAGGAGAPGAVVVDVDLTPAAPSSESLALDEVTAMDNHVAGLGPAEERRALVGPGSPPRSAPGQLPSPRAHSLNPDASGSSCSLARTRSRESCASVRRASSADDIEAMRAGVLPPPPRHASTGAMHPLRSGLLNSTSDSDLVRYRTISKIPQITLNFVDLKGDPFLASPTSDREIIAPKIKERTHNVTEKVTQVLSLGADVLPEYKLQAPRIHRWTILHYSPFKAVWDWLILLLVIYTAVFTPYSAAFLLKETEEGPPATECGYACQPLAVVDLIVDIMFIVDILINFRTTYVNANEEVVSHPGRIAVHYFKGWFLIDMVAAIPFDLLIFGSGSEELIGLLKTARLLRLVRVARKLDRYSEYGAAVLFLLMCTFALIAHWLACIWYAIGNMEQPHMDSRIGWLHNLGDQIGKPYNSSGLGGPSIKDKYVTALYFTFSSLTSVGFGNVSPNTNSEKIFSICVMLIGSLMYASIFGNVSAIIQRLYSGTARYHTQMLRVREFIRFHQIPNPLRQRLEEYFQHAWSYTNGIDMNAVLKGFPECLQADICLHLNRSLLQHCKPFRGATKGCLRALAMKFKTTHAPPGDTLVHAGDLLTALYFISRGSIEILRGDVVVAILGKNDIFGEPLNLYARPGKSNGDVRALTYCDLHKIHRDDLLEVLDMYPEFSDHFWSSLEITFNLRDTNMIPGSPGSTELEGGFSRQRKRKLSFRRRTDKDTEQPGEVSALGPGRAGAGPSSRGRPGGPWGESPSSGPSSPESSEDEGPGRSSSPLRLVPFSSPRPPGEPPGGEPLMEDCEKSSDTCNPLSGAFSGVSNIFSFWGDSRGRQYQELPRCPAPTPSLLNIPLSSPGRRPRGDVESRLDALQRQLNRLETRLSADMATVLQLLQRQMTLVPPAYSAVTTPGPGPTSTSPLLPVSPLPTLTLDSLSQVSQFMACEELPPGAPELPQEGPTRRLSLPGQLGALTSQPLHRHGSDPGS
row,Compound,"hERG current change (%, negative = inhibition) at 1uM"
1,CCc1ccc2[nH]c(=O)c(C(c3nnnn3CCOC)N3CCN(c4ccccc4F)CC3)cc2c1 (stereo not drawn),3.84%
2,Cc1ccc2cc(CN(c3cccc(C)c3C)S(=O)(=O)c3ccccc3)c(=O)[nH]c2c1,16.1%
3,CCCN1CCN(C(=O)Cn2c(=O)oc3cc(S(=O)(=O)NCc4ccccc4)ccc32)CC1,9.92%
4,FC(F)(F)c1cccc(CON=C2CCN(c3ncc(C(F)(F)F)cc3Cl)CC2)c1,-13.8%
5,Cc1cc(=O)oc2c1c(C)nn2-c1ccc(Br)cc1,9.89%
6,CN(Cc1ccccc1F)c1nc(-c2cccs2)nc2ccccc12,5.94%
7,CCc1ccc(CN(C)C(=O)CCc2nnc(Cc3cccc(C)c3)o2)nc1,-7.57%
8,CCOC(=O)c1ccccc1N/C=C1\CCCCC1=O,7.56%
9,CC(C)(CNCC(O)c1ccccc1)N1CCOCC1 (stereo not drawn),9.77%
10,COc1ccc(C)cc1NC(=O)c1nnn(CCc2ccccc2)c1N,0.503%
11,CC(C)(C)n1nnnc1C(c1cccc(C(F)(F)F)c1)N1CCOCC1 (stereo not drawn),10%
12,Cc1c(NC(=O)/C(C#N)=C/c2ccc(-c3cc(Cl)ccc3Cl)o2)c(=O)n(-c2ccccc2)n1C,6.3%
13,Cc1ccccc1OCC(=O)Nc1ccncc1,9.84%
14,CC(=O)Nc1ccc2nc(NS(=O)(=O)c3ccc(C)cc3)sc2c1,4.57%
15,Cc1c(-c2ccccc2)nc2ccccc2c1C(=O)Oc1ccc([N+](=O)[O-])cc1,6.3%
16,CCCCn1c(CCCNC(=O)CC)nc2ccccc21,-3.85%
17,CCOC(=O)N1CCN(C(=O)c2cc(-c3ccncc3)nc3ccccc23)CC1,-8.95%
18,CN(C)CCCNS(=O)(=O)c1ccc(Cl)s1,10.9%
19,CC(C)(CNC(=O)c1ccc(NS(=O)(=O)c2ccc(F)c(F)c2)cc1)N1CCOCC1,-1.84%
20,Cc1cc(C)n(-c2ccc(Cl)c(C(=O)OCC(=O)N3CCCCC3C)n2)n1 (stereo not drawn),-0.369%
21,COc1ccccc1NC(=O)c1ccc(NC(=O)COC(=O)c2ccc(O)cc2)cc1,9.89%
22,CC1=C(C(=O)NC2CCCc3c2cnn3-c2cccc(C)c2C)OCCO1 (stereo not drawn),14.5%

row,Compound,"hERG current change (%, negative = inhibition) at 1uM"
1,CCN(CC)S(=O)(=O)c1ccc(OC)c(NC(=O)CCc2c(C)noc2C)c1,9.48%
2,CCC(C)Sc1ccc([C@H]2N[C@@](Cc3ccccc3)(C(=O)OC)[C@H]3C(=O)N(CC)C(=O)[C@@H]23)cc1OC.O=C(O)C(F)(F)F (stereo partly drawn),12.9%
3,CC(=O)N1CCc2cc(S(=O)(=O)NC3CCCCC3)ccc21,8.6%
4,COC(=O)CCC(=O)NN1C(=O)c2ccccc2C1=O,5.45%
5,CCCc1cc(=O)[nH]c(SCC(=O)Nc2cccc3ccccc23)n1,6.72%
6,O=C(NC1CCCc2c1cnn2-c1ccc(F)cc1F)c1ccccn1 (stereo not drawn),11.8%
7,CCn1c(=O)[nH]c(=O)c2c(N)c(C(=O)c3cc(F)ccc3F)sc21,-29.3%
8,COc1ccc(CN2CCN(CCC(C)C)C(CCO)C2)cc1Cn1cccn1 (stereo not drawn),-6.89%
9,CC(C)Cn1c(SCC(=O)N2CCN(S(=O)(=O)c3ccccc3)CC2)nc2ccccc21,27.7%
10,CCOC(=O)/C(=C/C=C1\Sc2ccccc2N1CC)C(C)=O,10.3%
11,CC(C)(C)NC(=O)NC(=O)COC(=O)Cc1ccc(Cl)cc1Cl,10.3%
12,Cc1cccc(-c2nnc(SCC(=O)NCc3ccc4c(c3)OCO4)n2C)c1,-0.318%
13,COc1ccc(C(=O)CC2OC(=O)c3c2ccc(OC)c3OC)cc1 (stereo not drawn),8.46%
14,CCc1cccc(NC(=O)CCS(=O)(=O)c2ccc(Br)cc2)c1,1.8%
15,O=C(NCCOc1ccccc1Cl)c1ncn[nH]1,0.249%
16,O=C(COc1ccc(Cl)cc1Cl)N1CCCN(C(=O)COc2ccc(Cl)cc2Cl)CC1,-4.42%
17,COC(=O)C1=C(c2ccc(F)cc2OCc2ccccc2)C[C@@H]2CC[C@H]1N2C(=O)NCc1ccc(OC)c(OC)c1,9.71%
18,CCOc1ccc(N2CC(C(=O)NCc3ccc(C)n3C)CC2=O)cc1 (stereo not drawn),1.09%
19,CCN(CC)C(=O)Cn1cc(C(=O)C(=O)N(C)C2CCN(C)CC2)c2ccccc21,6.52%
20,COC(=O)c1c(-c2cccc3ccccc23)csc1NC(=O)Cc1ccc(OC)c(OC)c1,11.5%
21,COc1ccc(S(=O)(=O)n2ccnc2)c2cccnc12,17.7%
22,O=S(=O)(NCc1csc(-c2cccs2)n1)c1ccc(Cl)cc1,12.1%

row,Compound,"hERG current change (%, negative = inhibition) at 1uM"
1,FC(F)(F)c1nnc2ccc(Cl)nn12,11%
2,COc1ccc(CNC(=O)C(=O)NCC2OCCN2S(=O)(=O)c2ccc(C)cc2)cc1 (stereo not drawn),30.3%
3,O=c1[nH]c(C2CCN(S(=O)(=O)c3ccc(S(=O)(=O)NC4CC4)cc3)CC2)nc2c1nnn2Cc1cccc(F)c1,5.38%
4,C=CCSc1nc2sc(-c3ccccc3)cc2c(=O)n1N,23.1%
5,Cc1ccc2nc(-c3ccccc3)cc(C(=O)N3CCN(c4ccccc4O)CC3)c2c1,12%
6,COc1ccc(NC(=O)CN2CCc3ccccc3C2)c([N+](=O)[O-])c1,34.8%
7,CCN(CC)S(=O)(=O)c1ccc(C(=O)OCCNC(=O)c2cccnc2)cc1,12.1%
8,CCOC(=O)C1(CCOC)CCN(Cc2nc(C(C)C)cs2)CC1,16.7%
9,CC(C)C[C@H](NC(=O)[C@@H](O)[C@H](N)Cc1ccccc1)C(=O)O,10.5%
10,O=[N+]([O-])c1ccc(-c2nc3ccc([N+](=O)[O-])cc3[nH]2)cc1,5.39%
11,Cc1scc(C(=O)NNC(=S)NCC(C)C)c1C,10.5%
12,Cc1ccc(NC(=O)C2c3ccccc3Oc3ccccc32)nc1,8%
13,COc1ccc(/C=N/Nc2cc(C)nc3ccccc23)cc1,-12.9%
14,CCOc1ccc(CC2c3cc(OCC)c(OCC)cc3CCN2C(=O)CN2CCN(C)CC2)cc1OCC.Cl (stereo not drawn),7.53%
15,COc1ccc(C2Nc3ccccc3C(=O)N2NC(C)=O)cc1OC (stereo not drawn),3.7%
16,On1nnc2ccccc21,5.77%
17,COc1ccc(-c2oc3cccnc3c2C#CCO)cc1,14.4%
18,O=C(c1ccccc1)c1c[nH]c(C(=O)NCCCn2ccnc2)c1,11.2%
19,O=[N+]([O-])c1cccc(/C=N/N=C\c2ccccc2)c1,19.6%
20,Cc1c(CCC(=O)O)c(=O)oc2cc3oc4c(c3cc12)CCCC4,17.1%
21,CCN(CC)S(=O)(=O)c1cccc(-c2nnc(SCCOc3ccccc3)o2)c1,12.4%
22,CCN(c1cc(C)cc(C)c1)S(=O)(=O)c1nnc(NC(=O)c2ccco2)s1,4.14%

row,Compound,"hERG current change (%, negative = inhibition) at 1uM"
1,CCOC(=O)C1=CN(CC2CCCO2)C=C(C(=O)OCC)C1c1ccccc1C(F)(F)F (stereo not drawn),-2.85%
2,Nc1nc2ccccc2nc1N1CCCC1,-6.95%
3,O=c1cc(N/N=C/c2ccccc2)[nH]c(=O)[nH]1,14.7%
4,S=c1[nH]nc(-c2ccc(Cl)cc2)n1/N=C/c1cccs1,0.537%
5,O=C1CCN(CCCc2ccccc2)CCN1CCO,5.78%
6,O=C(/C=N/O)Nc1cccnc1,16.2%
7,O=c1[nH]cnc2onc(-c3ccc(F)cc3)c12,12.1%
8,Cc1ccnc(N2CCCC(C(=O)Nc3cc(F)ccc3C)C2)n1 (stereo not drawn),7.57%
9,CCn1nc(C)c(CN2CCCC(C(=O)c3cccc(OC(C)C)c3)C2)c1C (stereo not drawn),-4.68%
10,Cc1ccc(NC(=O)Cn2cncc2-c2ccc([N+](=O)[O-])cc2)cc1C,7.55%
11,Cc1c(CN2CCC(C)CC2)c(=O)n(-c2ccccc2)n1C,-4.65%
12,O=C(NC(=S)Nc1nc2c(s1)CSc1ccccc1-2)c1ccccc1,6.34%
13,O=C(N/N=C/c1ccoc1)c1ccccc1,10.5%
14,CCCCn1c(CN2CCN(c3ccccc3)CC2)nc2c1c(=O)n(C)c(=O)n2C,-18.6%
15,C=CCN1C(=O)/C(=C/c2ccc(-c3ccc(F)cc3)o2)SC1=S,8.52%
16,Cc1ccc(CNC(=O)c2oc3ccc(S(=O)(=O)N4CCOCC4)cc3c2C)cc1,3.78%
17,Cn1c(=O)n(C)c2cc(NS(=O)(=O)c3ccc4c(c3)CCCC4)ccc21,-8.66%
18,Cc1ccc(C)c(/C=C2\N=C(c3ccccc3F)OC2=O)c1,13.9%
19,Nc1ccn(-c2ccccc2)c(=O)c1,12.1%
20,O=C(Nn1c(-c2ccc(Br)cc2)nc2ccccc2c1=O)c1ccc([N+](=O)[O-])cc1,-21.4%
21,CCOC(=O)C1=C(C)Nc2nnnn2C1c1cccc(OC)c1OC (stereo not drawn),0.996%
